Measured values: the supplement of paper PMC3334620
Over roughly 33,000 sequences, “E-score (-0.5 to 0.5)” has its median near -0.054; the highest 2% begin near 0.39. This is one part of the list.

target: Ylr278c (UniProt Q05854); test: PBM E-score (8-mer binding enrichment) (E-score (-0.5 to 0.5)); higher = stronger / more preferred TF binding; most listed sequences are background and not binding sites; settings: protein concentration: 200 nM; construct: GST-DNA-binding domain
How it was run: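 Universal all-10-mer Agilent arrays, fresh or stripped once, were converted to double-stranded form by primer extension. GST-tagged yeast transcription factors from PURExpress in vitro transcription/translation, full-length or DNA-binding domain only, were applied at about 100-200 nM and detected with fluorescent anti-GST. After masliner normalisation, the Universal PBM Analysis Suite scored each ungapped eight-base word together with its reverse complement by E-score.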

Row | Sequence | PBM E-score
1 | AGCTTTGC | -0.045
2 | AAGTTAAT | -0.144
3 | ACATATCC | 0.148
4 | GAGCCTCC | 0.0105
5 | TAGATGCA | -0.179
6 | ACTGTTCC | 0.0791
7 | CCCTTCCA | -0.108
8 | GATTGAAC | -0.0676
9 | ACGATATC | -0.0815
10 | ACCCAACT | -0.211
11 | AACCCCGC | 0.41
12 | AATGCTCG | -0.103
13 | CAAAAACA | -0.174
14 | AATTGTTA | -0.0746
15 | CAATAAAC | 0.105
16 | ACCGATCA | 0.171
17 | ACTTTGCA | -0.121
18 | TACTCAAA | -0.144
19 | CCGTGTTC | 0.203
20 | CCAGCCTA | -0.214
21 | ATTGGTAC | 0.0452
22 | TACATGCA | -0.0669
23 | AACGAATC | 0.0405
24 | GATTAGAC | -0.107
25 | GCACATGC | 0.044

Row | Sequence | PBM E-score
26 | GGTGCTAC | -0.0466
27 | CCGGATTA | 0.455
28 | AGCGGACC | 0.252
29 | ATACTCAC | -0.149
30 | CGTACATC | -0.0477
31 | ATGAGGGG | -0.099
32 | GAGTAAGC | -0.0825
33 | CTGTCGCA | -0.00586
34 | ATAACGGC | 0.158
35 | ATTGCTTA | -0.0717
36 | ACCAGAAT | -0.187
37 | CATAAACG | -0.0617
38 | ACACATCG | -0.0839
39 | GGCGTCAA | -0.0152
40 | ATTTTGTG | 0.0609
41 | ACCCGCAT | 0.161
42 | CCACAGCG | -0.0839
43 | GCCCGCCA | 0.196
44 | CAGCTTAG | -0.202
45 | ATTTGCAC | -0.228
46 | CGCCCCAG | -0.018
47 | CCTTGATC | -0.158
48 | ACATGAAG | -0.0787
49 | CACAATGG | -0.0664
50 | CATCATTA | 0.0546

Row | Sequence | PBM E-score
51 | TTATATAA | 0.195
52 | GAGCATGC | -0.0798
53 | AGCGGCGG | 0.353
54 | AGCATATA | 0.0738
55 | GGGTCAGA | -0.167
56 | CTCTACAA | -0.214
57 | AGATACAA | -0.0944
58 | CCAACTGC | 0.0912
59 | ACAGCGGA | 0.275
60 | AAGCGGGA | 0.219
61 | CACCGAGA | 0.034
62 | AACCGCAC | -0.0338
63 | GTTGATTA | -0.0327
64 | CAGCACAA | -0.0202
65 | ACGGGGCT | 0.201
66 | CTAATCAG | -0.0685
67 | CCGCCATC | 0.167
68 | TATCTACA | -0.119
69 | GAGGTAAC | 0.081
70 | ACAAGAAC | 0.0809
71 | CGCGGCCA | 0.123
72 | GTAGCTTA | -0.159
73 | CATCCTCC | 0.201
74 | AGAACTTG | -0.158
75 | AATGGCTG | -0.163

Row | Sequence | PBM E-score
76 | CAACCCTA | -0.215
77 | ATAGTCGC | -0.0527
78 | ATGTGAGA | -0.196
79 | CGTGGCTC | -0.238
80 | ATTACTCG | -0.025
81 | ATACTGTG | -0.194
82 | ATCATTAC | -0.0708
83 | CCGCATTC | 0.215
84 | ACCACTCA | -0.259
85 | CCTCGCCC | -0.0519
86 | AAGCCAGC | -0.207
87 | CTTCTATC | -0.00777
88 | CCGGCCTA | 0.287
89 | ATCGTCAG | -0.24
90 | CTACTGCA | -0.384
91 | ATCACTGA | -0.195
92 | GAAATATA | 0.189
93 | CAAGAGAG | -0.172
94 | CGCCTGTC | -0.0687
95 | CAGTCAGG | -0.187
96 | TAGATACA | -0.295
97 | AAGGCGTC | -0.192
98 | AACCACAG | -0.188
99 | GTCGAGGA | -0.264
100 | ACCATGCC | 0.072

Row | Sequence | PBM E-score
101 | CAGGCCGG | 0.176
102 | ACGAAATA | -0.0959
103 | GCCGTACC | 0.213
104 | CAGTCCGA | 0.402
105 | CCGTGGAG | 0.23
106 | CCTGCCCA | -0.275
107 | CCCTCATC | -0.199
108 | CATGCGAA | -0.00394
109 | CTGTAAAG | -0.00462
110 | CCTCGCAG | -0.0589
111 | ACGCCAAT | -0.107
112 | ATTGTGAG | -0.0852
113 | AATAGACG | 0.0829
114 | AACTGCCA | -0.249
115 | AGCGCATA | -0.0726
116 | CGCTCAGA | -0.0763
117 | CCTTCGGA | 0.424
118 | AGCATACG | 0.0274
119 | ATCCCACG | -0.14
120 | CTTAGGTC | -0.00439
121 | CCTATAGC | -0.344
122 | ACGTCATA | -0.112
123 | CTAATATC | 0.0812
124 | GCCAGATA | -0.141
125 | ACCATCAA | -0.175

Row | Sequence | PBM E-score
126 | CCGTCAGC | 0.128
127 | CTCACTAA | -0.0701
128 | CGACTTTC | 0.158
129 | GCACAGTA | -0.245
130 | CATGGGAC | -0.146
131 | GCAGGGCC | -0.0627
132 | AACGGTCA | 0.103
133 | AGTCCTTG | -0.206
134 | GATGGCAA | 0.00399
135 | GGACGGAC | 0.359
136 | TAAAGCTA | -0.357
137 | CGCCGCTA | 0.328
138 | AGTGCCCA | -0.038
139 | CGCAAGAA | 0.0704
140 | CCGAGACG | 0.134
141 | AACTGCCG | 0.212
142 | GCAAGAAA | -0.00183
143 | ATCGTATC | -0.115
144 | AATACCGG | 0.416
145 | TTAATCAA | -0.0824
146 | CCGAGACC | 0.31
147 | GTACTATA | 0.0927
148 | CAGGAAAC | -0.137
149 | AACTTACG | -0.0452
150 | AAGTTGAC | -0.179

Row | Sequence | PBM E-score
151 | CATCACCC | 0.123
152 | GGAGCAAC | 0.227
153 | ACAGCGCT | -0.0073
154 | CAAAAGCA | -0.161
155 | GTGAAAAC | 0.0583
156 | AGCGAAGC | -0.0178
157 | GGGAAACC | 0.169
158 | AAATCCGG | 0.474
159 | GAACCGAA | 0.0439
160 | AGGTAAAT | -0.114
161 | CGGGGCTC | 0.226
162 | GGTGATAA | 0.0744
163 | CTAAACAA | -0.108
164 | ATCCCCCG | 0.3
165 | ACCAACCT | -0.119
166 | CGAGGGGA | 0.0236
167 | CGTTAATC | 0.0727
168 | GCTATTAC | -0.135
169 | GGGAATAC | 0.176
170 | GGATGCCA | -0.277
171 | GGTCAGTA | 0.0032
172 | ACAGTCTA | -0.204
